The RNAGym collection of RNA variant scans (doi:10.1073/pnas.2313332121)
This sample is rich in variants without activity.

B1: TPR 5TU (parent)
chain: GGAUCUUCUCGAUCUAACAAAAAAGACAAAUCUGCCACAAAGCUUGAGAGCAUCUUCGGAUGCAGAGGCGGCAGCCUUCGGUGGCGCGAUAGCGCCAACGUUCUCAACUAUGACACGCAAAACGCGUGCUCCGUUGAAUGGAGUUUAUCAUG

Variants of: B1
Experiment: polymerase ribozyme fitness, log enrichment relative to wild type (log ratio); higher = more active; in vitro selection for triplet polymerase activity
How it was run: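 The heterodimeric triplet polymerase ribozyme's subunits were each mutagenized into PCR-built libraries and transcribed. Every library was selected once, in triplicate, by annealing with a biotinylated primer, the partner subunit and triplets, incubating frozen at −7 °C, gel-excising extended constructs, capturing on streptavidin beads and running RT-PCR. Input and output libraries were Illumina-sequenced, with genotypes kept only at ≥10 input reads and ≥1 read per output. Fitness, from inverse-variance-weighted replicate averages, is the base-2 logarithm of genotype enrichment over wild-type enrichment.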

GGAUCUUCUCGAUCUAACAAAAAUGACCAAUCUGCCACAAAGCUUGAGAGCGUCUUCGGAUGCAGAGGCGACAGCCUUCGGUGGCGCGAUAGCGCGAACGUUCUCAACUAUGACACGCAAAACGCGUGCUCCGUUGCAUGGAGUUUAUCAUG and GGAUCUUCUCGAUCUAACAAAAAUGACAUAUCUGCCACAAAGCUUGAGAGCAUCUUUGGAUGCAGCGGCGGCAGCCUUCGGUGGCGCGAUAGCGACAACGUUCUCAACUAUGACACGCAAAACGCGUGCUCCGUUGAAUGGAGUUUAUCAUG cannot be ordered by “polymerase ribozyme fitness (log ratio)” value: ≤ -4.2 for the first, ≤ -4.2 for the second.

GGAUCUUCUCGAUCUAACAAAAAGGACAAAUCUGCCACAAAGCUUGAGAGCAUCUUCGGAUACAGAGGCGGCAGCCUUCGGUGGUGCGAUAGCGCCAACUUUAUCAACUAUGACACGCAAAACGCGUGCUCCGUUGAAUGGAGUUUAUCAUG and GGAUCUUCUCGAUCUAACAAAAAUGUCAAAUCUGCCACAAAGCUUGAGAGCAUCUUCGGCUGCAGAGGCGGCAGCCUUGGGUGGCGCGAUAGCGCGAACGUUCUCAACUAUGACACGCAUAACGCGUGCUCCGUUGAAUGGAGUUUAUCAUG cannot be ordered by “polymerase ribozyme fitness (log ratio)” value: ≤ -4.2 for the first, ≤ -4.2 for the second.

GGAUCUUCUCGAUCUAACAAAAAUGCCAUAUCUGCCACAUAGCUUGAGAGCGUCUUCGGAUUCAGAGGCGGCAGCCUUCGGUGGUGCGAUAGCGCCAACGUUCUCAACUAUGACACGCAAAACGCGUGCUCCGUUGAAUGGAGUUUAUCAUG and GGAUCUUCUCGAUCUAACAAAAAGGACAAAUCUGCCACAAAGCUUGAGAGCAUCUUCGGAUGCAGAGGCGGCAGCCUUCAGUGGCGCUAUAGCGCCAACGUUCUCAACUAUGACACGCAAAACGCGUGCUCCGUUGAAUGGAGUUUACCAUG cannot be ordered by “polymerase ribozyme fitness (log ratio)” value: ≤ -4.2 for the first, ≤ -4.2 for the second.

GGAUCUUCUCGAUCUAACAAAAAUGACAACUCUGCCACAAAGCUUGAGAGCAUCUUCGGAUGCAGAGGCGGCAGCCUUUCGUGGUGCGAUAGCGCGAACGUUCUCAACUAUGACACCCAAAACGCGUGCUCCGUUGAAUGGAGUUUAUCAUG and GGAUCUUCUCGAUCUAACAAAAAGGACAAAUCUGCCACAAAGCUUGAGAGCACAUUCGGAUGCAGAGGCGGCAGCCUUCGGUGGCGCGAUAGCCCCAACGUUCUCAACUAUGACACGCAAAAAGCCUGCUCCGAUGAAUGGAGUUUAACAUG cannot be ordered by “polymerase ribozyme fitness (log ratio)” value: ≤ -4.2 for the first, ≤ -4.2 for the second.

GGAUCUUCUCGAUCUAACAAAAAUGACAUAUCUGCCACAAAGCUUGAGAGCAUCUUUGGAUGCAGAGGAGGCAGCCUUCGGUAGCGGGAUAGCGCCAACGUUCUCAACUAUGACACGCAAAACGCGUGCUCCGUUGAAUGGAGUUUAGCAUG and GGAUCUUCUCGAUCUAACAAAAAUGACAAUUCUGCCACAAAGCUUGAGAGCAUCUUCGGAUGCAGAGGCGGCAGCCUUCGGUGGCGAGAUAGCGCCAACGUUCACAACUAUGACACGCAAAACGCGUGCUCCGUUGAAUGGAGUUUAUCAUG cannot be ordered by “polymerase ribozyme fitness (log ratio)” value: ≤ -4.2 for the first, ≤ -4.2 for the second.

GGAUCUUCUCGAUCUAACAAAAAUGACUAAUCUGCCACCAAGCUUGAGAGCAUCUUCGCUUGCAGGGCCGGCAGCCUUGGAUGGCGCGAUAGCGCCAACGUUCUCAACUAUGACAGGCAAAACGUGUGCUCCGUUGAAUGGAGUUUAUCAUG and GGAUCUUCUCGAUCUAACAAAAAGGACAAAUCUGCCACAAAGCUUGAGAGCAUCUUCGGAUGCAGACGGGGCAGCCUUCGGUGGGGCGAUAGCGCCAACGUCCUCAACUAUGACACGCAAAACGCGUGCUCCGUUGAAUGGAGUUAAUCAUG cannot be ordered by “polymerase ribozyme fitness (log ratio)” value: ≤ -4.2 for the first, ≤ -4.2 for the second.

GGAUCUUCUCGAUCUAACAAAAAUGACAAUUCUGCCACAAAGCUUGAGAGCAUCUUCGGAUGCAGAGGCGGCAGCCGUCGGUGGCGCGAUAGCACCAACGUUCUCACCUAUGACCCGAAAAACGCGUGCUCCGUUGAAUGGAGUUUAACAUG and GGAUCUUCUCGAUCUAACAAAAAGGACAAAUCUGCCACAAAGCUUGAGAGCAUCUUCGGAUUCAGAGGCGGCAGCCUUCGGUGGUGCGAUAGCGCCAACGUUCUCAACUAUGACACGCAAAACGCGUGCUCCGUUGAAUGGAGUUAAUCAUG cannot be ordered by “polymerase ribozyme fitness (log ratio)” value: ≤ -4.2 for the first, ≤ -4.2 for the second.

GGAUCUUCUCGAUCUAACAAAAAUGACAUAUCUGCCACAAAGCUUGAGAGCAUCUUCGGAUGCAGAGGCGGGAGCCUUCGGUGACGCGAUAGCGGCAACGUUCUCAACCAUGACACGCAAAACGCGUGCUCCGUUGAAUGGAGUUUAUCAUG and GGAUCUUCUCGAUCUAACAAAAAGGACAAAUCUGCCACAAAGCUUGAGAGCAUCUUCGGAUGCAGAGGCGGCAGCCUUCGGUGGCUCGAUAGCGCCAACGUUCUCAACUAUGACACGCAAAACGCGUGCUCCGUUGAAUGGAGUUUAACAUG cannot be ordered by “polymerase ribozyme fitness (log ratio)” value: ≤ -4.2 for the first, ≤ -4.2 for the second.

GGAUCUUCUCGAUCUAACAAAAAUGACAUAUCUGCCACAAAGCUUGAGAGCAUCUUCGGAUGCAGAGGCGGCAGCCUUCGGUGGCGCGAUAGCGCCAACGUUCUCAACUAUGACACGCAAAACGCGUGCUCCGUUGAAUGGAGUUUAUCAAG and GGAUCUUCUCGAUCUAACAAAAAGGACAAAUCUGCCACAAAGCUUGAGAGCAUCUUCGGAUGCAGAGGCGCCAGCCUUGGGUGGAGCGAUAGCGCCAACGUUCUCAACUAUGACACGCAAAACUCGUGCGCCGUUGAAUGGAGUUUACCAUG cannot be ordered by “polymerase ribozyme fitness (log ratio)” value: ≤ -4.2 for the first, ≤ -4.2 for the second.

GGAUCUUCUCGAUCUAACAAAAAGGACAAAUCUGCCACAAAGCUUGAGAGCAUCUUCGGAUGCAGAGGCGGCACCCUUCGGUGGCGCGAUAACGCCAACGUUCCGAACUGUUCCACGCUAAACGCGUGCUCCGUUGAAUGGAGUUUAUCAUG and GGAUCUUCUCGAUCUAACAAAAAUGUCAAAUCUGCCACAAAGCUUGAGAGCAUCUUCGGAUGCAGAGGCGGCAGCCUUCGGUGGCGCGAUAGGGCCAAUGUUCUCAACUAUGACACGCAAAACGCGUGCUCCGUUGAAUGGAGUUUAUCAUG cannot be ordered by “polymerase ribozyme fitness (log ratio)” value: ≤ -4.2 for the first, ≤ -4.2 for the second.

GGAUCUUCUCGAUCUAACAAAAAGGACAAACAUGCCACAAAGCUUGCGAGCAUCUAGGGAUGCAGAGGCGGCAGCCUUCGGUGGUGCGAUAGCGCCAACGUUCUCAACUAUGACACACAAAACGCGUGCUCCGUUGAAUGCAGUUUAUCAUG and GGAUCUUCUCGAUCUAACAAAAAUGUCAAAUCUACCACAAAGCUUGAGAGCAUCUUCGGAUGCAGAGGCGGCAGCCUUCGGUGGCGCCAUAGCGCCAACGUUCUCAACUAUGACACGCAAAACGCGUGCUCCGUUGAUUGGAGUUUAUCAUG cannot be ordered by “polymerase ribozyme fitness (log ratio)” value: ≤ -4.2 for the first, ≤ -4.2 for the second.

GGAUCUUCUCGAUCUAACAAAAAGGACAAAUCUGCCACAAAGCUUGAGAGCAUCUACGGAUGCAGAGGCGGCAGCCUUCGGUGGUGCGAUAGCGCCAACGUGCUCAACUAUGACACGCAAAACGCGUGCUCCGUUGAAUGGAGUUCAUCAUG and GGAUCUUCUCGAUCUAACAAAAAUGACCAAUCUGCCACAUAGCUUGAGAGCUUCUUCGGAUGCAGAGACGGCAGCCUUGGGUGGCGCGAUAGCGCCAACGUUCUCAACUAUGACACGCAAAACGCGUGCUCCGUUGAAUGGAGUUUAUCAUG cannot be ordered by “polymerase ribozyme fitness (log ratio)” value: ≤ -4.2 for the first, ≤ -4.2 for the second.

GGAUCUUCUCGAUCUAACAAAAAUGACAGAUCUGCCACAAAGCUUGAGAGCCUCUUCGGAUGCAGAGCCGGCAGCCUUCGGUGGCGCGAUAGCGCCAACGUUCUCAACUAUGACACGCAAAACGCGUGAUCCGUUGAAUGGAGUUUAUCAUG and GGAUCUUCUCGAUCUAACAAAAAGGACAAAUCUGCCACAAAGCUUGAGAGCAUCUACGGUUGCAUAGGCGGCAGCCUUCGGUGGCGCGAUUGCGCGAACGUUCUCAACUAUGACACGCAUAACGCGUGCUCCGUUGAAUGGAGUUUAUCAUG cannot be ordered by “polymerase ribozyme fitness (log ratio)” value: ≤ -4.2 for the first, ≤ -4.2 for the second.

Compared with GGAUCUUCUCGAUCUAACAAAAAGGACAAACCUGCCACAAAGCUUGAGAGCAUCUUCGGAUGCAGAGGCGGCAGCCUUCGGUGGCGCGAUAGCGCCAACGUUCUCAACUAUGACACGCAAAACGCGUGCUCCGUUGAAUGGAGUUUAUCAUG, GGAUCUUCUCGAUCUAACAAAAAUGACAAAUCUGCCCCAAAGCUUGAGAGCAUCUUCGGAUGCAGAGGCGGCAGUCUUCGGUGGCGCGAUAGCGCCCACGUUCUCAACUCUGACACGCAAAACGCGUGCUCCGUUGAAUGUAGGAUAUCAUG is lower in “polymerase ribozyme fitness (log ratio)” value: -3.52 for the first, ≤ -4.2 for the second.

GGAUCUUCUCGAUCUAACAAAAAGGACAAAUCUGCCACAAAGCUUGAGAGCAUCUUCGGAUGCAGAGGCGGCAGCCUUCGGUGGCGCGAUAACGCCAACGUUCUCAACUAUGACACGCAAAACGCGUGCUCCGUUGAAUGGAGUUUAUCAUG and GGAUCUUCUCGAUCUAACAAAAAGGACAAAUCUGCCACAAAGCUUGAGAGCAUCUUCGGAUGCAGAGGCGGCAGCCUUCGGUGGCGCGAUAGCCCGAACGUUCUCAACUAUGACACGCAAAACGCGUGCUCCGUUGAAUGGAGUUUAUCAUG cannot be ordered by “polymerase ribozyme fitness (log ratio)” value: ≤ -4.2 for the first, ≤ -4.2 for the second.

GGAUCUUCUCGAUCUAACAAAAAUGCCUAAUCUGCCACAAAGCUUGAGAGCAUCUUCGGAUGCAAAGACGGCAGCCUUCGGUGGCGCGAUAUCGCCAACGUUCUCAACUAUGACACGCAAAACGCGUGCUCCGUUAAAUGGAGUUUAUCAUG and GGAUCUUCUCGAUCUAACAAAAAGGACAAAUCUGCCACAAAGCGUGAGACCAUCUUCGGAUGCAGAGGCGUCAGCCUUCGGUGGGGCGAUAACGCCAACGUUCUCAACUAUGACACGCAAAACGCGUGCUCCGUUAAAUGGAGUUUAUCAUG cannot be ordered by “polymerase ribozyme fitness (log ratio)” value: ≤ -4.2 for the first, ≤ -4.2 for the second.

Going from GGAUCUUCUCGAUCUAACAAAAAGGACAAAUCUGCCACAAAGCUGGAGAGCAACUUCGGAUGCAGAGGCGGCAGCCUUCGGUGGUGCGAUAGCGCCAACGUUCUCAACUAUGACACGCCAAACGCGUGCUCCGUUGCAUGGAGUUUAUCAUG to GGAUCUUCUCGAUCUAACAAAAAGGACAAAUCUGCCACAAAGCAUGAGCGCAUCUUCGGAUGCAGAGGCGGCAGCCUUCGGGGGCGCGAUAGCGCCAACGUUCUCAACUAUGACACGCAAAUCGCGUGCUCCGUUGAAUCGAGUUUAUUAUG, the “polymerase ribozyme fitness (log ratio)” value rises from ≤ -4.2 to -4.02.

GGAUCUUCUCGAUCUAACAAAAAGGACAAAUCUGCCACAAAGCAUGAGAGCAUCUUCGGAUGCAGAGGCGGCAGCCUUCGGUGGCGCGUUGGCGCCAACGUUCUCAUCUAUGACACGCAAAACGCGUGCUCCGUUGAAUGGAGUUUAUCAUG and GGAUCUUCUCGAUCUAACAAAAAGGACAAAUCUGCCACAAAGCUUGAGAGCAUCUUCGGAUGCAGAGGCGGCAGCCUUCAGUGGCGCGAUAGCGCAAACGUUCUCAACUACGACACGCAAAACGCGUGCUCCGUUGAAUGGAGUUUAUCAUG cannot be ordered by “polymerase ribozyme fitness (log ratio)” value: ≤ -4.2 for the first, ≤ -4.2 for the second.

GGAUCUUCUCGAUCUAACAAAAAUGACAGAUCUGCCAUAAAGCUUGAGCUCAUCUUCGAAUGCAGAGGCGGCAGCCUUCGGUGGCGCGAUAGCGCCAACGUUCUCAACUAUGACACGCAAAACGCGUGCUCCGUAGAAUGGAGUUUAUCAUG and GGAUCUUCUCGAUCUAACAAAAAGGACAAAUCUGCCACAAAGCUUGAGAGCAUCUUCGCAUGCAGAGGCGGCAGCCUUCGGUGGCGAGAUAGCGCCAACGUUCUCAACUAUGACACGCAAAACGCGUGCUCCGUUGAAUGGAGUUUAUCAUG cannot be ordered by “polymerase ribozyme fitness (log ratio)” value: ≤ -4.2 for the first, ≤ -4.2 for the second.
